From patent US20250297021A1 (SHANDONG SIMCERE BIOPHARMACEUTICAL CO NO 1, published 2025)

T1: human BCMA-His protein (human, UniProt Q02223 1-54)
T1 construct: bought; also called human BCMA protein; not shown: His tag
T1 sequence (looked up): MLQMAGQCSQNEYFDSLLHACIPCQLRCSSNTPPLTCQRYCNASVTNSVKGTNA

T2: human BCMA on cells (human, UniProt Q02223 1-184)
T2 construct: whole, on cells; also called H929 cells; U266 cells
T2 sequence (looked up): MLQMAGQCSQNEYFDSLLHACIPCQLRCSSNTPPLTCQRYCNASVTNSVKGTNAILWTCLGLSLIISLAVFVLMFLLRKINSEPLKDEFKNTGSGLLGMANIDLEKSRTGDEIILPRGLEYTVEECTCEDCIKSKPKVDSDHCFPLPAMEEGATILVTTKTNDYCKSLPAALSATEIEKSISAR

B1: BCMA-mAb03 (Fc fusion)
scFv: QIPLVQSGPELKKPGETVKISCKASGYTFTNYAMTWVKQAPGKGLKWMGWIDTYSGVPTYADDFKGRFAFSLETSATTAYLQINNLKNEDTATYFCARVGVYGGYDTLDSWGQGTSVTVSSGGGGSGGGGSGGGGSDIQMTQTTSSLSASLGDRVTISCSASQGISNHLNWYQQKPDGTVKLLIYYTSSLHSGVPSRFSGSGSGTDYSLTISNLEPEDFATYYCQQYNNLPWTFGGGTKLEIK[human IgG1 Fc with C220S (EU numbers) not spelt out]
B2: BCMA-mAb05 (Fc fusion)
scFv: QGQMQQSDAELVKPGASVQISCKASGYMFTDHTFHWMRQRPEQGLEWIGYIYPRDDNTKYNEKFKGKATLTADKSSSTAYIHLNSLTSEDSAVYFCARAGYYGSSHAMDYWGQGTSVTVSSGGGGSGGGGSGGGGSDIVMTQSHKFMSTSVGDRVSITCKASQDVSTAVAWYQQKPGQSPRLLIYSASSRYTGVPDRFTGSGSGTDFTFTISSVQTEDLAVYYCQQLYSTPWTFGGGTKLEIK[human IgG1 Fc with C220S (EU numbers) not spelt out]
B3: BCMA-mAb07 (Fc fusion)
scFv: QVQLQQSGAELAKPGASVKLSCKASGYTFTDYWTHWVKQRPGQGLEWIGYINHGSGYTKYNQKFKDKATLTADKSSSTAYMQVSSLTYEDSAVYYCARLTGSYYFDYWGQGTTLTVSSGGGGSGGGGSGGGGSQIVLTQSPAIMSASPGEKVTMTCSASSSVSYMHWYQQKSGTSPKRWIYDTSKLASGVPPRFSGSGSGTSYSLTISSMEAEDAATYYCQQWSSNPLTFGAGTKLELK[human IgG1 Fc with C220S (EU numbers) not spelt out]
B4: BCMA-mAb06 (Fc fusion)
scFv: EVKLLQSGGGLVQPGGSLKLSCAASGIDFSRYWMSWVRRAPGKGLEWIGEINPDSSTINYAPSLKDEFIISRDNAKNTLYLQMSKVRSEDTALYYCAIFYYANYYAMDYWGQGTSVTVSSGGGGSGGGGSGGGGSDIVMTQSQKFMSTSVGDRVSVTCKASQNVDTNVAWYQQKPGQSPKALIYSASYRFSGVPDRFTGSGSGTDFTLTISNVQSEDLAEYFCQQYNGYPFTFASGTKLEIK[human IgG1 Fc with C220S (EU numbers) not spelt out]
B5: BCMA-mAb01 (Fc fusion)
scFv: EVKLVESGGGLVQPGGSLKLSCAASGFTFSDFYMYWVRQTPEKRLEWVAYITNGGENTYFPDTVKGRFTISRDNAKNTLYLQMSRLKSEDTAMYYCARQNPFYYYDSNYDYAMDFWGQGTSVTVSSGGGGSGGGGSGGGGSDVVMTQTPLTLSVTIGQPASISCKSSQSLLYSNGKTYLSWLFQRPGQSPKRLIYLVSELDSGVPDRFTGSGSGTDFTLKISRVEAEDLGIYYCVQGTHFPHTFGGGTKLEIK[human IgG1 Fc with C220S (EU numbers) not spelt out]
B6: BCMA-mAb02 (Fc fusion)
scFv: EVQLVESGGDLVQPGESLKLSCESNAYEFPSYDMSWVRKTPEKRLELVAAINSDGGITYYPDTMERRFIISRDNTKKTLYLQMSSLRSEDTALYYCARHGYGGGAYVLDYWGQGTSVTVSSGGGGSGGGGSGGGGSDIVMTQSQKFMSTTVGDRVRITCKASQNVGTAVAWYQQKPGQSPKVLIYSASSRYTGVPDRFTGSGSGTDFTLTINNMQSEDLADYFCQQYSNYHLTFGTGTKLELK[human IgG1 Fc with C220S (EU numbers) not spelt out]
B7: BCMA-mAb04 (Fc fusion)
scFv: QVQLQQSGAELARPGASVDLSCKASGYSFTSYGISWVKLRTGQGLEWIGEIYPRDDITYYNEKFKGKTTLTADKSSSTAYMELRSLTSEDSAVYFCARHDYYYVNSVSAMDYWGQGTSVTVSSGGGGSGGGGSGGGGSDIVMSQSPSSLAVSVGEKVTMSCKSSQSLLYSSNQKNYLAWYQQKPGQSPKLLIYWASTRYSGVPDRFTGSGSGTDFTLTVSSVRAEDLALYYCQQYYIYPWTFGGGTKLEIK[human IgG1 Fc with C220S (EU numbers) not spelt out]

Each binder was assayed against T1, human BCMA-His protein (assay: ELISA, human BCMA-His coated; Ab 100 nM).
Method: The specific method was as follows: Human BCMA protein (purchased from Acro, catalog number: BCA-H522y) and monkey BCMA protein (purchased from Acro, catalog number: BCA-C52H7) were diluted with PBS to a final concentration of 1 μg/mL, respectively, and then added to a 96-well ELISA plate at 50 μl/well. The plate was sealed with a plastic film and incubated overnight at 4° C., the plate was washed twice with PBS the next day, and then a blocking solution [PBS+2% (w/v) BSA] was added for blocking at room temperature for 2 h. The blocking solution was discarded, the plate was washed 3 times with PBS, and 100 nM BCMA human-mouse chimeric antibody diluted gradiently or control antibody was added at 50 μl/well. After incubation at 37° C. for 2 h, the plate was washed 3 times with PBS. HRP (horseradish peroxidase)-labeled secondary antibody (purchased from Merck, catalog number: AP113P) was added, and incubated at 37° C. for 1 h, and the plate was washed 5 times with PBS. TMB substrate was added at 50 μl/well, and incubated at room temperature for 10 min, then a stop solution (1.0 M HCl) was added at 50 μl/well. The OD450 nm values were read by an ELISA microplate reader (Multimode Plate Reader, EnSight, purchased from Perkin Elmer). The results are shown in Table 7, Table 8 and FIGS. 7A-7B and FIG. 8A-8B. All chimeric antibodies have good binding activity with human BCMA protein; except that BCMA-mAb06 has no cross-binding activity with monkey BCMA protein and BCMA-mAb07 has weak binding to monkey BCMA protein, other chimeric antibodies have good binding activity with monkey BCMA protein. The IgG subtype control is human IgG1.

How did the OD450 turn out when B1 was run?
Its OD450 is 3.2.

Which OD450 does the source give for B2 here?
Its OD450 is 2.14.

How did the OD450 turn out when B3 was run?
The OD450 was 2.29.

How did the OD450 turn out when B4 was run?
Its OD450 is 2.53.

For B5, which OD450 is on record?
The OD450 was 2.89.

How did the OD450 turn out when B6 was run?
Its OD450 is 2.77.

With B7 as the binder, how does the OD450 read?
The OD450 was 2.63.

What follows are binders tested against T2, human BCMA on cells (assay: cell ELISA, Flp-inCHO-human BCMA cells; Ab 0.01 nM).
Source text: (§1) The specific method was as follows: The required cells were scale-up cultured in a T-75 cell culture flask to the logarithmic growth phase, the medium was aspirated, the cells were washed twice with a PBS buffer, and then digested with trypsin. Then the digestion was terminated with a complete medium, and the cells were pipetted to obtain a single cell suspension. After the cells were counted and centrifuged, the cell precipitate was resuspended to 4×10⁵ cells per milliliter with a complete medium, and the suspension was added to a 96-well flat-bottomed cell culture plate at 100 μl/well, and cultured overnight in a 37° C., 5% carbon dioxide incubator. On the next day, the medium in the 96-well plate was discarded, the cells were washed once with PBS, and then fixed at room temperature for 0.5 h with an immunostaining fixative (purchased from Beyotime, catalog number: P0098-500 ml) at 50 μl/well. A blocking solution [PBS+5% (w/v) skim milk] was added for blocking at room temperature for 2 h. The blocking solution was discarded, the plate was washed 3 times with PBS, and 100 nM BCMA human-mouse chimeric antibody diluted gradiently or control antibody was added at 50 μl/well. After incubation at 37° C. for 2 h, the plate was washed 3 times with PBS. HRP (horseradish peroxidase)-labeled secondary antibody (purchased from Merck, catalog number: AP113P) was added, and incubated at 37° C. for 1 h, and the plate was washed 5 times with PBS. TMB substrate was added at 50 μl/well, and incubated at room temperature for 10 min, then a stop solution (1.0 M HCl) was added at 50 μl/well. The OD450 nm values were read by an ELISA microplate reader (Multimode Plate Reader, EnSight, purchased from Perkin Elmer). The chimeric antibodies bind well to Flp-inCHO-human BCMA cells. The IgG subtype control is human IgG1.

How did the OD450 turn out when B1 was run?
The OD450 was 0.09.

Which OD450 does the source give for B2 here?
The OD450 was 0.1.

Which OD450 does the source give for B3 here?
Its OD450 is 0.1.

How did the OD450 turn out when B4 was run?
The OD450 was 0.1.

B5 was tested. Which OD450 did it give?
Its OD450 is 0.1.

B6 was tested. Which OD450 did it give?
Its OD450 is 0.09.

B7 was tested. Which OD450 did it give?
The OD450 was 0.07.

What follows are binders tested against T2, human BCMA on cells (assay: FACS, RPMI8226 cells).
Method: The desired cells were scale-up cultured in T-75 cell culture flasks to the logarithmic growth phase, and the cells were pipetted into a single cell suspension. After the cells were counted, the cells were centrifuged and the cell pellet was resuspended in FACS buffer (PBS+2% fetal calf serum) to 2×10⁶ cells per ml, and the suspension was added to the 96-well FACS reaction plate at 50 μl per well, then the sample to be tested of the chimeric antibody was added at 50 μl per well and the mixture was incubated at 4° C. for 1 h. The obtained mixture was centrifuged and washed 3 times with a PBS buffer. […] The obtained mixture was centrifuged and washed 3 times with a PBS buffer. 100 μl of the mixture was taken for detection and result analysis by FACS (FACS Canto™, purchased from BD Company). Data analysis was performed by software (FlowJo) to obtain the mean fluorescence intensity (MFI) of the cells. Then, a software (GraphPad Prism8) was used for analysis, data fitting and EC50 calculation. The results are shown in Table 10 and FIGS. 10A-10B, FIGS. 11A-11B, and FIGS. 12A-12B. All seven chimeric antibodies bind to three types of BCMA-expressing endogenous cells.

With B1 as the binder, how does the EC50 read?
Its EC50 is 11.3 nM.

What about the “Maximum mean fluorescence intensity” value of the same binder?
Its value is 1490.

Which results are given for B2?
EC50: 12.1 nM; Maximum mean fluorescence intensity: 2230

With B3 as the binder, how does the EC50 read?
Its EC50 is 6.38 nM.

And the “Maximum mean fluorescence intensity” value?
The value was 2220.

For B4, which EC50 is on record?
The EC50 was 2.28 nM.

And the “Maximum mean fluorescence intensity” value?
Its value is 2860.

How did the EC50 turn out when B5 was run?
The EC50 was 3.3 nM.

And the “Maximum mean fluorescence intensity” value?
Its value is 1580.

B6 was tested. Which EC50 did it give?
The EC50 was 4.63 nM.

What about the “Maximum mean fluorescence intensity” value of the same binder?
The value was 1430.

B7 was tested. Which EC50 did it give?
The EC50 was 26 nM.

What about the “Maximum mean fluorescence intensity” value of the same binder?
The value was 1290.

These binders were tested against T2, human BCMA on cells (assay: cell ELISA, Flp-inCHO-human BCMA cells; Ab 0.02 nM).
Source text: as §1

For B1, which OD450 is on record?
Its OD450 is 0.11.

Which OD450 does the source give for B2 here?
Its OD450 is 0.15.

Which OD450 does the source give for B3 here?
Its OD450 is 0.12.

Which OD450 does the source give for B4 here?
The OD450 was 0.15.

Which OD450 does the source give for B5 here?
The OD450 was 0.13.

For B6, which OD450 is on record?
Its OD450 is 0.11.

B7 was tested. Which OD450 did it give?
The OD450 was 0.11.
